Measured values from PubChem BioAssay AID1347073 (National Center for Advancing Translational Sciences (NCATS), 2019).
Out of some 45,000 compounds screened, about 200 (0.44%) were called active. Roughly 7% stayed inconclusive and do not appear here. Calls follow the shape of the dose curve; as a rule, active = well fitted activation curve with a large enough effect; inconclusive = small, poorly fitted or top-dose-only effect; inactive = no such curve, though single readings can be large or run the other way. The list shows a part of the results.

Assay: qHTS of TDP-43 Inhibitors: NCGC Sytravon Library Screen; also: 0% is about no effect; nearly all actives have a fitted effect of over 55% in size
Details: yeast TDP-43 toxicity rescue, BacTiter-Glo growth, 24 h; series mostly up to 46.1 µM; growth rescue (activation): at the top concentration
How it was run: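 TDP-43-expressing yeast, pregrown in raffinose, seeded at OD600 0.02 in galactose medium with compound for 24 hr at 30 deg C. Growth read by BacTiter-Glo luminescence, so rescue of toxicity appears as activation.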
For `COc1ccc(CNC(=O)C2CCN(S(=O)(=O)c3ccc4nc5c(c(C(=O)O)c4c3)CC(C)CC5)CC2)cc1` (configuration not stated), the “growth rescue (activation)” value was inactive: 0.13%. In the case of `O=C(CCNS(=O)(=O)c1ccc(Br)s1)NCc1ccccc1`, the “growth rescue (activation)” value is reported as inactive: -0.151%. For `Fc1ccc(-c2cnc3n2CCCCC3)cc1`, the “growth rescue (activation)” value was inactive: 5.65%. With `CCc1ccc(NC(=O)c2c(C(=O)Nc3ccccc3)sc3nc(C)cc(=O)n23)cc1` the “growth rescue (activation)” value was inactive: 4.75%. With `CCc1ccc(Oc2coc3cc(OCC(=O)Nc4cc(C)ccc4C)ccc3c2=O)cc1` the “growth rescue (activation)” value was inactive: -9.23%. With `O=C(CNC(=O)c1ccccc1)Oc1ccc([N+](=O)[O-])cc1` the “growth rescue (activation)” value was inactive: -8.18%. In the case of `COc1cccc(Nc2n[nH]c(=S)s2)c1`, the “growth rescue (activation)” value is reported as inactive: 20.6%. In the case of `N#Cc1c(Sc2ncc(C(F)(F)F)cc2Cl)nsc1C/C=N\OCc1c(F)cccc1Cl`, the “growth rescue (activation)” value is reported as inactive: 6.54%. For `CCC(C)NC(=O)CN(c1ccc(Cl)c(Cl)c1)S(C)(=O)=O` (configuration not stated), the “growth rescue (activation)” value was inactive: 12.2%. In the case of `COc1cccc(-c2cc(C(=O)N3CCN(c4ccc(F)cc4)CC3)no2)c1`, the “growth rescue (activation)” value is reported as inactive: 4.44%. For `O=C(CSc1nc(-c2ccco2)cc(C(F)(F)F)n1)NCCc1ccccc1`, the “growth rescue (activation)” value was inactive: 16.4%. For `O=c1c2sccc2n(Cc2cc(=O)n3ccccc3n2)c(=O)n1-c1cccc(C(F)(F)F)c1`, the “growth rescue (activation)” value was inactive: 21%. With `O=C(NCc1cccs1)C1CC(=O)N(Cc2ccccc2)C1` (configuration not stated) the “growth rescue (activation)” value was inactive: -23.6%. With `O=CNc1cc(-c2ccc(C(=O)N3CCOCC3)cc2)cn2c(-c3ccc(F)cc3)cnc12` the “growth rescue (activation)” value was inactive: -1.4%. In the case of `O=C(Nc1ccc2c(c1)CCC2)c1cccc(S(=O)(=O)Nc2ccccc2Cl)c1`, the “growth rescue (activation)” value is reported as inactive: 32.6%. For `CC(C)(CNC(=O)CNC(=O)c1ccc(Cl)cc1Cl)N1CCOCC1`, the “growth rescue (activation)” value was inactive: 19.5%. In the case of `CC(C)(C)c1ccc(CSc2nnc(-c3ccccn3)n2Cc2ccco2)cc1`, the “growth rescue (activation)” value is reported as inactive: 15.7%. With `O=C(CCCOC(=O)c1ccc(O)cc1)c1ccccc1` the “growth rescue (activation)” value was inactive: 20.9%. With `CSc1ccccc1CNc1nc(NCC2CC2)nc2ccsc12` the “growth rescue (activation)” value was inactive: 17.3%. In the case of `CCCN1CCC(NC(=O)CCc2nnc(-c3ccccc3)o2)CC1`, the “growth rescue (activation)” value is reported as inactive: 6.59%. In the case of `O=C(O)c1ccc(COc2ccccc2/C=C2/NC(=O)N(c3cccc(Cl)c3)C2=O)cc1`, the “growth rescue (activation)” value is reported as inactive: 2.93%. For `Cc1cc(C(=O)COc2ccccc2[N+](=O)[O-])c(C)n1-c1cccc(S(=O)(=O)N2CCOCC2)c1`, the “growth rescue (activation)” value was inactive: 5.87%. In the case of `COc1cc(-c2cc(NC=O)c3ncc(-c4ccc(C(C)=O)cc4)n3c2)ccc1O`, the “growth rescue (activation)” value is reported as inactive: -1.71%. In the case of `Cc1cc(C)n(-c2ccc(C(=O)NCCCN3CCOCC3)cc2)n1`, the “growth rescue (activation)” value is reported as inactive: 2.63%. In the case of `CC(=O)c1cccc(S(=O)(=O)NC(C)C2CC3CCC2C3)c1` (configuration not stated), the “growth rescue (activation)” value is reported as inactive: 19.4%. With `CN(C(=O)COc1ccc([N+](=O)[O-])cc1)C1CCS(=O)(=O)C1` (configuration not stated) the “growth rescue (activation)” value was inactive: 2.46%. In the case of `COC(=O)c1sc2nc(C)cc(-c3ccccc3)c2c1N`, the “growth rescue (activation)” value is reported as inactive: 23.6%. For `Cc1cc(C)nc(NNC(=O)c2ccccc2O)n1`, the “growth rescue (activation)” value was inactive: -7.12%. In the case of `CCOC(=O)CSc1cc(CS(C)(=O)=O)nc(-c2ccccn2)n1`, the “growth rescue (activation)” value is reported as inactive: 0.481%. With `CC(=O)c1cccc(NC(=O)COc2ccccc2C(=O)c2cc(C#N)c(=O)n(C3CCCCC3)c2)c1` the “growth rescue (activation)” value was inactive: -5.89%. For `COc1cc(NC(=O)COC(=O)c2[nH]c(C)c(C(C)=O)c2C)cc(OC)c1`, the “growth rescue (activation)” value was inactive: 17.2%. With `Cn1c(-c2cccc([N+](=O)[O-])c2)cnc1NCc1cccc([N+](=O)[O-])c1` the “growth rescue (activation)” value was inactive: 2.19%. For `COC(=O)C(C(=O)OC)c1ccc(-n2cccc2)cc1`, the “growth rescue (activation)” value was inactive: 13.2%. With `CCn1c(=O)c(C(=O)Nc2ccccn2)c(O)c2ccccc21` the “growth rescue (activation)” value was inactive: -5.58%. In the case of `CCOC(=O)N1CCC(N2Cc3cccc(C(=O)N4CCN(c5cccc(C)c5C)CC4)c3C2=O)CC1`, the “growth rescue (activation)” value is reported as inactive: 9.47%. With `CSc1ccc(CN(C)C(=O)CNC(=O)CNS(=O)(=O)c2ccc(C)c(C)c2)cc1` the “growth rescue (activation)” value was inactive: 1.69%. For `COc1ccc2ccccc2c1CNC(=O)CC1C(=O)NCCN1CC(C)C` (configuration not stated), the “growth rescue (activation)” value was inactive: 6.19%. In the case of `Cc1c(F)cccc1NS(=O)(=O)c1ccc2c(c1)n(C)c(=O)c(=O)n2C`, the “growth rescue (activation)” value is reported as inactive: -14.1%. In the case of `Cc1ccc(NC(=O)COC(=O)c2ccc(-n3nc(C)cc3C)cc2)c(F)c1`, the “growth rescue (activation)” value is reported as inactive: 9.76%. With `CC(NC(=O)C(Cc1ccccc1)n1cccc1)c1ccccc1` (configuration not stated) the “growth rescue (activation)” value was inactive: 22.7%. For `Fc1ccc(-c2nnc(SCc3cccnc3)o2)cc1`, the “growth rescue (activation)” value was inactive: 9.38%. With `CCC(C)NCCCOc1c(C)cc(C)cc1Br` (configuration not stated) the “growth rescue (activation)” value was inactive: -17.7%. With `c1ccc(-c2cc3nc(NCC4CC4)nc(NCC4CCCCC4)c3s2)cc1` the “growth rescue (activation)” value was inactive: 18.4%. In the case of `Cc1c(NC(=O)CCSCCc2ccccn2)cccc1[N+](=O)[O-]`, the “growth rescue (activation)” value is reported as inactive: 1.48%. With `O=C(CSc1nc2ccccc2[nH]1)N/N=C/c1ccncc1` the “growth rescue (activation)” value was inactive: 11.3%. With `O=C(NNC(=S)NC(=O)c1ccc(F)cc1)c1cccnc1` the “growth rescue (activation)” value was inactive: -1.61%. In the case of `CC(C)OCCCNC(=S)NNC(=O)C(c1ccccc1)c1ccccc1`, the “growth rescue (activation)” value is reported as inactive: 5.55%. In the case of `COc1ccc(NC(=O)c2cc(-c3ccccn3)nc3ccccc23)c(OC)c1`, the “growth rescue (activation)” value is reported as inactive: 9.08%. With `CN1CCN(c2ncnc3c2ncn3[C@H]2CN(Cc3ccccc3)C[C@@H](CO)O2)CC1` the “growth rescue (activation)” value was inactive: 5.88%. With `Cc1cccc(-c2nc(S(=O)(=O)c3ccccc3)c(N3CCOCC3)o2)c1` the “growth rescue (activation)” value was inactive: 14.5%. With `O=S(=O)(/N=C(/NC(=S)Nc1ccccc1)c1ccccc1)c1ccc(Cl)cc1` the “growth rescue (activation)” value was inactive: 28.7%. For `N#Cc1ccc(CSc2nnc3[nH]c(=O)cc(N)n23)cc1`, the “growth rescue (activation)” value was inactive: -14.9%. With `O=c1c2ccccc2[nH]c(=S)n1CCC1=CCCCC1` the “growth rescue (activation)” value was inactive: 6.12%. For `CC1(C)Cc2ccccc2-c2[nH]c(=S)[nH]c(=O)c21`, the “growth rescue (activation)” value was inactive: 24.7%. In the case of `CC(/C=C1\SC(=O)N(CCCC(=O)O)C1=O)=C\c1ccccc1`, the “growth rescue (activation)” value is reported as inactive: 7.44%. In the case of `S=C(NCc1ccncc1)Nc1ccc(Cl)c(Cl)c1`, the “growth rescue (activation)” value is reported as inactive: 9.28%. In the case of `Cn1c(-c2cccc([N+](=O)[O-])c2)cnc1NCc1ccc(C#N)cc1`, the “growth rescue (activation)” value is reported as inactive: 3.65%. With `NC(=O)C1CCN(C(=O)CSc2nc(O)cc(=O)[nH]2)CC1` the “growth rescue (activation)” value was inactive: 1.1%. In the case of `CCNC(=O)c1ccc(C23CC4CC(CC(C4)C2)C3)o1`, the “growth rescue (activation)” value is reported as inactive: 7.33%. With `COc1ccccc1CNc1nc(NC(C)C)nc2cc(-c3ccccc3)sc12` the “growth rescue (activation)” value was inactive: 11.8%. In the case of `COc1ccc(Cl)cc1NC(=O)CN1CCC(NC(=O)C2CC2)CC1`, the “growth rescue (activation)” value is reported as inactive: -9.5%. With `O=C(O)c1ccc(C2SCC(=O)N2Cc2ccccc2)cc1` (configuration not stated) the “growth rescue (activation)” value was inactive: 16.6%. For `COc1ccc2c(-c3ccccc3)cc(SCC(=O)NC3CCS(=O)(=O)C3)nc2c1` (configuration not stated), the “growth rescue (activation)” value was inactive: -1.68%. With `Cc1sc2nc(COC(=O)c3ccc(N4CCCC(C)C4)c([N+](=O)[O-])c3)[nH]c(=O)c2c1C` (configuration not stated) the “growth rescue (activation)” value was inactive: 10.4%. With `CC1(C(=O)NS(=O)(=O)c2ccc(Br)cc2)CCN1C(=O)C/C=C/c1ccccc1` (configuration not stated) the “growth rescue (activation)” value was inactive: -8.49%. With `Cn1cc(C(=O)Nc2ccc(C#N)cc2)c2ccccc2c1=O` the “growth rescue (activation)” value was inactive: 1.48%. For `N/C(=N\OCC(=O)Nc1ccccc1)c1nonc1N`, the “growth rescue (activation)” value was inactive: 1.59%.
